Assay [1] has as its target T1, GFP-tagged CD68 (in HEK293T cells) (human) (UniProt P34810).
T1 sequence: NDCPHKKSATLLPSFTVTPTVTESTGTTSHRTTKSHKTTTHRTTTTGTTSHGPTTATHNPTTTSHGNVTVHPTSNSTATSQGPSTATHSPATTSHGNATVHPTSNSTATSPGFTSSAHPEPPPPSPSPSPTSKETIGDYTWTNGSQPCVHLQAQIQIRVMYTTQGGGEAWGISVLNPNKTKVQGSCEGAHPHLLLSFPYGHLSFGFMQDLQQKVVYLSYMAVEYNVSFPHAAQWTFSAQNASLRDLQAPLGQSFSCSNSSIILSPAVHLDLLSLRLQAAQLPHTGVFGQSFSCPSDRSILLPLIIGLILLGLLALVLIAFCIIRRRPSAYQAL
Description: pull-down; conditioned media containing FLAG-tagged PGRN incubated with beads bound to GFP or GFP-CD68; Western blot with anti-GFP and anti-FLAG; only the target purified. For orientation: Immunoblotting shows a protein as a band on a membrane.

Sequences of proteins named here, by UniProt entry; tags and fusion partners are left off. A change or cut given only in a name is not applied to a line headed by its entry. A line that says so, or that is headed by a name, gives the form on record, which may keep a tag or linker. Residues count along the entry.
UniProt P28799: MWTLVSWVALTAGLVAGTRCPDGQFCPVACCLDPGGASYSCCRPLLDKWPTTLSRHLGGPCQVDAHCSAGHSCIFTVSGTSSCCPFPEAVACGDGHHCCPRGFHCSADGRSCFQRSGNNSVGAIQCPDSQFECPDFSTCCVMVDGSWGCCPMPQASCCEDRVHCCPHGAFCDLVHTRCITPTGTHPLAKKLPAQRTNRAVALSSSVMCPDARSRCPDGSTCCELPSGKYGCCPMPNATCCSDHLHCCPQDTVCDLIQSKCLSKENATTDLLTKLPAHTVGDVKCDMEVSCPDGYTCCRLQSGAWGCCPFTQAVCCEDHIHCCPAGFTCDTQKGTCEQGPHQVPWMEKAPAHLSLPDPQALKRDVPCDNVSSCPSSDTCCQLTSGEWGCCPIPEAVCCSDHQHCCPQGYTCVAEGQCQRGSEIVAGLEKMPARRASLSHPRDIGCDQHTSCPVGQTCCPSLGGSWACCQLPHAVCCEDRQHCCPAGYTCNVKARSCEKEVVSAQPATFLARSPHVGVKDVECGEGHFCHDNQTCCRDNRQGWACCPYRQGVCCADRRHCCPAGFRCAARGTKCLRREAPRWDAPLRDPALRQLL
FLAG-tagged PGRNΔE (amino acids 17–492): residues 17-492 of P28799
GFP-tagged granulin E: residues 518-573 of P28799

In assay [2] the target is T1, GFP-tagged CD68 (in HEK293T cells) (human). Description: co-IP; HEK293T cells co-transfected; lysates (150 mM NaCl, 50 mM Tris-HCl pH 7.5, 1% Triton X-100, 0.1% deoxycholic acid) incubated with anti-GFP-conjugated beads (GFP-Trap) 3 to 4 h at 4 °C; Western blot.
Assay [3] has as its target T2, CD68-GFP (in COS-7 cells) (human) (UniProt P34810).
T2 sequence: T1 sequence
Description: alkaline phosphatase (AP) fusion binding to transfected cells; COS-7 cells transfected with CD68-GFP, incubated with conditioned media containing AP-tagged granulin peptides; HBH pH 6.4, 3 h at room temperature, AP substrate (NBT/BCIP) read by brightfield microscopy.

For assay [4], the target named is T3, FL-CD68 (in COS-7 cells) (human) (UniProt P34810).
T3 sequence: T1 sequence
As to the kind of experiment: alkaline phosphatase (AP) fusion binding to transfected cells; COS-7 cells transfected with FL-CD68 or with the M + P or Lamp-D domain on the PDGFR transmembrane domain (pDisplay), incubated with AP-tagged PGRN or granulin E at 100 nM.

For assay [5], the target named is T4, Myc-His-tagged CD68 (human) (UniProt P34810).
T4 sequence: T1 sequence
As to the kind of experiment: co-IP; HEK293T cells co-expressing Myc-tagged CD68 constructs and GFP-tagged PGRN; lysates immunoprecipitated with anti-Myc-conjugated beads; Western blot.

The target in assay [6] is GFP-tagged granulin E (UniProt P28799). As to the kind of experiment: co-IP; HEK293T cells co-transfected; lysates (150 mM NaCl, 50 mM Tris-HCl pH 7.5, 1% Triton X-100, 0.1% deoxycholic acid) incubated with anti-GFP-conjugated beads (GFP-Trap) 3 to 4 h at 4 °C; Western blot.
Assay [7] addresses FLAG-tagged PGRNΔE (amino acids 17–492) (UniProt P28799). Description: co-IP; HEK293T cells co-transfected with GFP-tagged CD68 and FLAG-tagged PGRN or PGRN-ΔE; lysates incubated with anti-FLAG-conjugated beads; Western blot.
In assay [8] the target is FLAG-tagged PGRN (UniProt P28799). Described as above.

No constants are given. Whether binding was seen depends on the method and setting. For part of these data: In cells and extracts the contact can be indirect. Some entries that bind do so weakly or less than the wild type. For part of these data: Tags and fused reporters may be left off the sequences shown.

In the case of “FLAG-tagged PGRN (from UniProt P28799 18-593) (ligand)”, the binding entry in assay [1] and in assay [2] was “binds” each time.

Turning to “AP-tagged granulin E (from UniProt P28799 518-573) (domain or fragment)”, the binding result in assay [3] and in assay [4] was “binds” in each case.

With “GFP-tagged PGRN (from UniProt P28799 18-593) (ligand)”, in assay [5], the binding entry was “binds”.

Turning to “AP-tagged PGRN (from UniProt P28799 18-593) (ligand)”, the binding result in assay [4] is on record as “binds”.

B1: Myc-His-tagged CD68 (receptor, UniProt P34810 22-354)
chain: T1 sequence
As for B1, the binding result in assay [6] was “binds”.

B2: GFP-tagged CD68 (in HEK293T cells) (receptor, UniProt P34810 22-354)
chain: T1 sequence
In the case of B2, the binding result in assay [7] is “no binding”; in assay [8] it was “binds”.

The values above are taken from paper PMC9450144.
